Measurements taken from PubChem BioAssay (NCATS).
“And” between values parts separate entries of the source, which are not always exact repeats. Equal values may be shown once. The inconclusive results got no clear call from the source; some entries with a clear call stand among them for comparison. A potency beside an inconclusive call is a rough fit, not a confirmed value. The source made the active and inactive calls. Calls come from the whole dose curve; as a rule, active = well fitted inhibition curve with a large enough effect; inconclusive = small, poorly fitted or top-dose-only effect; inactive = flat fitted curve, though single readings scatter.

What follows are compounds tested on Zika virus NS2B-NS3 protease (assay: Primary screen GU AMC qHTS for Zika virus inhibitors (AID 1347154; note: nearly all actives have a fitted effect of over 70% in size;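 for activity change, negative = inhibition: 0% = no-inhibitor control and -100% = no-enzyme control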)). Details: Zika NS2B-NS3 unlinked protease, AMC fluorogenic substrate; series mostly up to 54.1 µM; activity change, negative = inhibition: at the top concentration.
Method in brief: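 Unlinked Zika NS2B hydrophilic domain–NS3 protease complex at 25 nM in 10 mM Tris-HCl pH 8.0, 0.01% Tween 20, with an AMC peptide substrate. Fluorescence change (340/450 nm) over 15 min at room temperature, normalized to controls, fitted to 4-parameter Hill.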
Potency is the fitted concentration of half-maximal effect; tags give direction and shape of the fitted curve.

| SMILES | Potency | activity change, negative = inhibition |
| --- | --- | --- |
| CC(C)(N)c1ccc(-c2nc3ccccc3nc2-c2ccccc2)cc1 | inconclusive: 21.5 µM [inhibitor, partial curve] | – |
| O=C(O)c1ccc2c(c1)nc(Nc1cccc(Cl)c1)c1ccncc12 | – | inactive: 3.46% |
| Cc1ccc(S(=O)(=O)OCC(=O)Nc2ccc(C(=O)O)c(O)c2)cc1 | inconclusive: 34.1 µM [inhibitor, single point] | – |
| COc1cc2c(cc1-c1c(C)noc1C)ncc1[nH]c(=O)n([C@H](C)c3ccccn3)c12 | inconclusive: 15.2 µM [inhibitor, full curve] | – |
| COc1cc(C=CC(=O)O)ccc1O | inconclusive: 21.5 µM [inhibitor, partial curve] | – |
| CCc1nc(-c2cccc(C)c2)c(-c2ccnc(NC(=O)c3ccccc3)c2)s1 | inconclusive: 24.1 µM [inhibitor, single point] | – |
| Clc1ccc2ncc(-c3cccc(NC4CNC4)n3)n2c1 | inconclusive: 7.64 µM [inhibitor, partial curve] | – |
| O=c1c(O)c(-c2ccc(O)cc2O)oc2cc(O)cc(O)c12 | inconclusive: 24.1 µM [inhibitor, partial curve] and inconclusive: 13.4 µM [inhibitor, partial curve] | – |
| COc1cc2c(cc1OC)[C@@H]1C(=O)c3ccc4c(c3O[C@@H]1CO2)C=CC(C)(C)O4 | inconclusive: 24.1 µM [inhibitor, partial curve, poor fit] | – |
| Cc1cc(Nc2nc(N[C@@H](C)c3ccc(F)cc3)c(C#N)cc2F)n[nH]1 | inconclusive: 24.1 µM [inhibitor, partial curve] | – |
